# The list shows a part of the results.
# B1: GH95CBM (Clostridium perfringens) (protein)
# chain: EKVAVETSVYLSELEWKSASTGYGEIQKDASCDGNTITLKGENGEKVSYDKGIGTHAHSEIVYSLEGLDYYDYFETFVGVDQEMAGTVASISFEVYLDNEKVFDSGLMTGDTTQKHVKVPIAGKNTLKLVVKDGGDSIGSDHGSFGDAKLT
# Columns and labels:
# Test in all cases: glycan array binding signal (z-score within array); higher = stronger binding
# Conditions in all cases: glycan notation: IUPAC condensed, linker removed
# GalNAc(b1-3)GalNAc = target: GalNAc(b1-3)GalNAc
# In short: (§1)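 Glycan array binding is given as a within-array Z-score, which can be read as non-binding when negative. The arrays, 3228 of them, came from the Consortium for Functional Glycomics database and were retained only where the protein sequence was available. Z-scores were averaged across arrays of the same protein sequence at different concentrations or buffers and across linkers.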
# GalNAc(b1-4)GlcNAc = target: GalNAc(b1-4)GlcNAc
# In short: as §1
# Glc(a1-4)Glc = target: Glc(a1-4)Glc
# In short: as §1
# Glc(a1-6)Glc(a1-6)Glc = target: Glc(a1-6)Glc(a1-6)Glc
# In short: as §1
# Glc(b1-4)Glc = target: Glc(b1-4)Glc
# In short: as §1
# Glc(b1-6)Glc = target: Glc(b1-6)Glc
# In short: as §1
# GlcA(b1-3)Gal = target: GlcA(b1-3)Gal
# In short: as §1
# GlcA(b1-3)GlcNAc = target: GlcA(b1-3)GlcNAc
# In short: as §1
# GlcA(b1-6)Gal = target: GlcA(b1-6)Gal
# In short: as §1
# [1] = target: GlcNAc(a1-3)Gal(b1-4)GlcNAc
# In short: as §1
# [2] = target: GlcNAc(a1-6)Gal(b1-4)GlcNAc
# In short: as §1
# [3] = target: GlcNAc(b1-2)Gal(b1-3)GalNAc
# In short: as §1
# [4] = target: GlcNAc(b1-2)Man(a1-3)[GlcNAc(b1-2)Man(a1-6)]Man(b1-4)GlcNAc(b1-4)GlcNAc
# In short: as §1
# GlcNAc(b1-3)Gal = target: GlcNAc(b1-3)Gal
# In short: as §1
# [5] = target: GlcNAc(b1-3)Gal(b1-3)GalNAc
# In short: as §1
# GlcNAc(b1-3)Gal(b1-4)Glc = target: GlcNAc(b1-3)Gal(b1-4)Glc
# In short: as §1
# [6] = target: GlcNAc(b1-3)Gal(b1-4)GlcNAc
# In short: as §1
# [7] = target: GlcNAc(b1-3)Gal(b1-4)GlcNAc(b1-3)Gal(b1-4)GlcNAc
# In short: as §1
# GlcNAc(b1-3)GalNAc = target: GlcNAc(b1-3)GalNAc
# In short: as §1
# GlcNAc(b1-3)Man = target: GlcNAc(b1-3)Man
# In short: as §1
# [8] = target: GlcNAc(b1-3)[GlcNAc(b1-4)][GlcNAc(b1-6)]GlcNAc
# In short: as §1
# [9] = target: GlcNAc(b1-3)[GlcNAc(b1-6)]Gal(b1-4)GlcNAc
# In short: as §1
# [10] = target: GlcNAc(b1-3)[GlcNAc(b1-6)]GalNAc
# In short: as §1
# [11] = target: GlcNAc(b1-4)Gal(b1-4)GlcNAc
# In short: as §1
# GlcNAc(b1-4)GlcNAc = target: GlcNAc(b1-4)GlcNAc
# In short: as §1
# [12] = target: GlcNAc(b1-4)GlcNAc(b1-4)GlcNAc
# In short: as §1
# [13] = target: GlcNAc(b1-4)GlcNAc(b1-4)GlcNAc(b1-4)GlcNAc(b1-4)GlcNAc
# In short: as §1
# [14] = target: GlcNAc(b1-4)GlcNAc(b1-4)GlcNAc(b1-4)GlcNAc(b1-4)GlcNAc(b1-4)GlcNAc
# In short: as §1
# [15] = target: GlcNAc(b1-4)[GlcNAc(b1-6)]GalNAc
# In short: as §1
# [16] = target: GlcNAc(b1-6)Gal(b1-4)GlcNAc
# In short: as §1
# GlcNAc(b1-6)GalNAc = target: GlcNAc(b1-6)GalNAc
# In short: as §1
# GlcNAc3Prop(b1-4)GlcNAc = target: GlcNAc3Prop(b1-4)GlcNAc
# In short: as §1
# Kdn(a2-3)Gal(b1-3)GlcNAc = target: Kdn(a2-3)Gal(b1-3)GlcNAc
# In short: as §1
# Kdn(a2-3)Gal(b1-4)GlcNAc = target: Kdn(a2-3)Gal(b1-4)GlcNAc
# In short: as §1
# [17] = target: Man(a1-2)Man(a1-2)Man(a1-3)Man
# In short: as §1
# [18] = target: Man(a1-2)Man(a1-2)Man(a1-6)[Man(a1-3)]Man
# In short: as §1
# Man(a1-2)Man(a1-3)Man = target: Man(a1-2)Man(a1-3)Man
# In short: as §1
# [19] = target: Man(a1-2)Man(a1-3)[Man(a1-2)Man(a1-6)]Man
# In short: as §1
# [20] = target: Man(a1-2)Man(a1-3)[Man(a1-2)Man(a1-6)]Man(a1-6)[Man(a1-2)Man(a1-2)Man(a1-3)]Man
# In short: as §1
# [21] = target: Man(a1-2)Man(a1-3)[Man(a1-2)Man(a1-6)]Man(a1-6)[Man(a1-2)Man(a1-2)Man(a1-3)]Man(b1-4)GlcNAc(b1-4)GlcNAc
# In short: as §1
# [22] = target: Man(a1-2)Man(a1-3)[Man(a1-6)]Man(a1-6)[Man(a1-2)Man(a1-3)]Man(b1-4)GlcNAc(b1-4)GlcNAc
# In short: as §1
# [23] = target: Man(a1-2)Man(a1-6)[Man(a1-3)]Man(a1-6)[Man(a1-2)Man(a1-2)Man(a1-3)]Man
# In short: as §1
# [24] = target: Man(a1-2)Man(a1-6)[Man(a1-3)]Man(a1-6)[Man(a1-2)Man(a1-2)Man(a1-3)]Man(b1-4)GlcNAc(b1-4)GlcNAc
# In short: as §1
# Man(a1-3)[Man(a1-6)]Man = target: Man(a1-3)[Man(a1-6)]Man
# In short: as §1
# [25] = target: Man(a1-3)[Man(a1-6)]Man(a1-6)[Man(a1-2)Man(a1-3)]Man(b1-4)GlcNAc(b1-4)GlcNAc
# In short: as §1
# [26] = target: Man(a1-3)[Man(a1-6)]Man(a1-6)[Man(a1-3)]Man
# In short: as §1
# [27] = target: Man(a1-3)[Man(a1-6)]Man(a1-6)[Man(a1-3)]Man(b1-4)GlcNAc(b1-4)GlcNAc
# In short: as §1
# [28] = target: Man(a1-3)[Man(a1-6)]Man(b1-4)GlcNAc(b1-4)GlcNAc
# In short: as §1
# Man(a1-6)Man = target: Man(a1-6)Man
# In short: as §1
# Man(b1-4)GlcNAc = target: Man(b1-4)GlcNAc
# In short: as §1
# Neu5Ac(a2-3)Gal = target: Neu5Ac(a2-3)Gal
# In short: as §1
# [29] = target: Neu5Ac(a2-3)Gal(b1-3)GalNAc
# In short: as §1
# [30] = target: Neu5Ac(a2-3)Gal(b1-3)GalNAc(b1-3)Gal(a1-4)Gal(b1-4)Glc
# In short: as §1
# [31] = target: Neu5Ac(a2-3)Gal(b1-3)GalNAc(b1-3)Gal(b1-4)GlcNAc
# In short: as §1
# [32] = target: Neu5Ac(a2-3)Gal(b1-3)GalNAc(b1-4)[Neu5Ac(a2-3)]Gal(b1-4)Glc
# In short: as §1
# [33] = target: Neu5Ac(a2-3)Gal(b1-3)GalNAc6S
# In short: as §1
# [34] = target: Neu5Ac(a2-3)Gal(b1-3)GlcNAc
# In short: as §1
# [35] = target: Neu5Ac(a2-3)Gal(b1-3)GlcNAc(b1-3)Gal(b1-3)GlcNAc
# In short: as §1
# [36] = target: Neu5Ac(a2-3)Gal(b1-3)GlcNAc6S
# In short: as §1
binder,measurement,setting,value
B1,glycan array binding signal (z-score),GalNAc(b1-3)GalNAc,-0.347
same,glycan array binding signal (z-score),GalNAc(b1-4)GlcNAc,-0.345
same,glycan array binding signal (z-score),Glc(a1-4)Glc,-0.351
same,glycan array binding signal (z-score),Glc(a1-6)Glc(a1-6)Glc,0.99
same,glycan array binding signal (z-score),Glc(b1-4)Glc,0.94
same,glycan array binding signal (z-score),Glc(b1-6)Glc,-0.296
same,glycan array binding signal (z-score),GlcA(b1-3)Gal,-0.288
same,glycan array binding signal (z-score),GlcA(b1-3)GlcNAc,-0.389
same,glycan array binding signal (z-score),GlcA(b1-6)Gal,-0.227
same,glycan array binding signal (z-score),[1],0.245
same,glycan array binding signal (z-score),[2],-0.32
same,glycan array binding signal (z-score),[3],-0.336
same,glycan array binding signal (z-score),[4],0.824
same,glycan array binding signal (z-score),GlcNAc(b1-3)Gal,-0.314
same,glycan array binding signal (z-score),[5],-0.276
same,glycan array binding signal (z-score),GlcNAc(b1-3)Gal(b1-4)Glc,-0.347
same,glycan array binding signal (z-score),[6],-0.359
same,glycan array binding signal (z-score),[7],-0.37
same,glycan array binding signal (z-score),GlcNAc(b1-3)GalNAc,-0.302
same,glycan array binding signal (z-score),GlcNAc(b1-3)Man,-0.328
same,glycan array binding signal (z-score),[8],-0.339
same,glycan array binding signal (z-score),[9],-0.365
same,glycan array binding signal (z-score),[10],-0.328
same,glycan array binding signal (z-score),[11],-0.344
same,glycan array binding signal (z-score),GlcNAc(b1-4)GlcNAc,-0.356
same,glycan array binding signal (z-score),[12],-0.364
same,glycan array binding signal (z-score),[13],-0.133
same,glycan array binding signal (z-score),[14],-0.281
same,glycan array binding signal (z-score),[15],-0.339
same,glycan array binding signal (z-score),[16],-0.319
same,glycan array binding signal (z-score),GlcNAc(b1-6)GalNAc,-0.35
same,glycan array binding signal (z-score),GlcNAc3Prop(b1-4)GlcNAc,-0.351
same,glycan array binding signal (z-score),Kdn(a2-3)Gal(b1-3)GlcNAc,-0.337
same,glycan array binding signal (z-score),Kdn(a2-3)Gal(b1-4)GlcNAc,-0.204
same,glycan array binding signal (z-score),[17],-0.16
same,glycan array binding signal (z-score),[18],-0.306
same,glycan array binding signal (z-score),Man(a1-2)Man(a1-3)Man,-0.318
same,glycan array binding signal (z-score),[19],-0.341
same,glycan array binding signal (z-score),[20],1.43
same,glycan array binding signal (z-score),[21],-0.359
same,glycan array binding signal (z-score),[22],-0.281
same,glycan array binding signal (z-score),[23],-0.363
same,glycan array binding signal (z-score),[24],-0.3
same,glycan array binding signal (z-score),Man(a1-3)[Man(a1-6)]Man,-0.3
same,glycan array binding signal (z-score),[25],-0.345
same,glycan array binding signal (z-score),[26],-0.376
same,glycan array binding signal (z-score),[27],-0.302
same,glycan array binding signal (z-score),[28],-0.367
same,glycan array binding signal (z-score),Man(a1-6)Man,-0.314
same,glycan array binding signal (z-score),Man(b1-4)GlcNAc,-0.306
same,glycan array binding signal (z-score),Neu5Ac(a2-3)Gal,-0.311
same,glycan array binding signal (z-score),[29],-0.345
same,glycan array binding signal (z-score),[30],-0.335
same,glycan array binding signal (z-score),[31],-0.326
same,glycan array binding signal (z-score),[32],-0.272
same,glycan array binding signal (z-score),[33],-0.301
same,glycan array binding signal (z-score),[34],-0.342
same,glycan array binding signal (z-score),[35],-0.359
same,glycan array binding signal (z-score),[36],-0.331

# — the supplement of paper PMC8728848
